Data from patent US20170088618A1 (CELGENE, published 2017).

Assays:
[1] = target: T1, human PD-1 expressed on cells (human, UniProt Q15116 part only); assay: flow cytometry on CHO cells expressing human PD-1; detection with anti-human IgG Fc (PE GeoMFI); axis 'Primary Ab conc (nM)' carries log values -3 to 3
T1 construct: also called human PD-1-CHO cells; CHO-hPD-1

[2] = target: T2, cynomolgus PD-1 expressed on cells (cynomolgus, UniProt B0LAJ3 25-288); assay: flow cytometry on CHO cells expressing cynomolgus PD-1; detection with anti-human IgG Fc (PE GeoMFI); axis 'Primary Ab conc (nM)' carries log values -3 to 3
T2 construct: also called cynomolgus PD-1 on CHO cells; PD-1 on cynomolgus T cells
T2 sequence (B0LAJ3 entry or part of it limits assumed): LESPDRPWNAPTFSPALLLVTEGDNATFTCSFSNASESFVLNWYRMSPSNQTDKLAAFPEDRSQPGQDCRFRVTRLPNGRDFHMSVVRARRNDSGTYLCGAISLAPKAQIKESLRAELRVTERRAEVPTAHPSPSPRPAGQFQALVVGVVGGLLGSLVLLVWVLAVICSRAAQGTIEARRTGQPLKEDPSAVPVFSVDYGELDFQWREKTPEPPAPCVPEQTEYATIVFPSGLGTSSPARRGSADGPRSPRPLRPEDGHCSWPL

T1 sequence (Q15116 25-198 limits assumed): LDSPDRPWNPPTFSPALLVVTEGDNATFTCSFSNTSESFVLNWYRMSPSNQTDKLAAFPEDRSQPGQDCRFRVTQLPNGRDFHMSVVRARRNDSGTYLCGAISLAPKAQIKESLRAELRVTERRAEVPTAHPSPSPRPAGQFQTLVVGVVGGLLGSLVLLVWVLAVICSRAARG

- LogEC50 [1]: 0.431 log10(nM)
- LogEC50 [2]: 0.806 log10(nM)
B1: PD1AB-6-IgG1 (antibody)
heavy: EVQLVQSGAEVKKPGATVKISCKASGFNIKDTYMHWVQQAPGKGLEWMGRIDPANGDRKYDPKFQGRVTITADTSTDTAYMELSSLRSEDTAVYYCARSGPVYYYGSSYVMDYWGQGTTVTVSS[letters of human IgG1 constant region left out]
light: DIVMTQSPDSLAVSLGERATINCKSGQSVLYSSNQKNFLAWYQQKPGQPPKLLIYWASTRESGVPDRFSGSGSGTDFTLTISSLQAEDVAVYYCHQYLYSWTFGQGTKLEIKRTVAAPSVFIFPPSDEQLKSGTASVVCLLNNFYPREAKVQWKVDNALQSGNSQESVTEQDSKDSTYSLSSTLTLSKADYEKHKVYACEVTHQGLSSPVTKSFNRGEC
notes: also called IgG1_PD1AB-6; IgG1-PD1AB-6
